The full ranking holds about 33,000 sequences; the median of “E-score (-0.5 to 0.5)” is about -0.011, and the highest 2% start at about 0.28. This is one part of the list.
These sequences were tested against T1, Gcr1 (UniProt P07261) (assay: PBM E-score (8-mer binding enrichment) (E-score (-0.5 to 0.5)); higher = stronger / more preferred TF binding; most listed sequences are background and not binding sites). Conditions: protein concentration: 100 nM; construct: GST-full length.
T1 sequence: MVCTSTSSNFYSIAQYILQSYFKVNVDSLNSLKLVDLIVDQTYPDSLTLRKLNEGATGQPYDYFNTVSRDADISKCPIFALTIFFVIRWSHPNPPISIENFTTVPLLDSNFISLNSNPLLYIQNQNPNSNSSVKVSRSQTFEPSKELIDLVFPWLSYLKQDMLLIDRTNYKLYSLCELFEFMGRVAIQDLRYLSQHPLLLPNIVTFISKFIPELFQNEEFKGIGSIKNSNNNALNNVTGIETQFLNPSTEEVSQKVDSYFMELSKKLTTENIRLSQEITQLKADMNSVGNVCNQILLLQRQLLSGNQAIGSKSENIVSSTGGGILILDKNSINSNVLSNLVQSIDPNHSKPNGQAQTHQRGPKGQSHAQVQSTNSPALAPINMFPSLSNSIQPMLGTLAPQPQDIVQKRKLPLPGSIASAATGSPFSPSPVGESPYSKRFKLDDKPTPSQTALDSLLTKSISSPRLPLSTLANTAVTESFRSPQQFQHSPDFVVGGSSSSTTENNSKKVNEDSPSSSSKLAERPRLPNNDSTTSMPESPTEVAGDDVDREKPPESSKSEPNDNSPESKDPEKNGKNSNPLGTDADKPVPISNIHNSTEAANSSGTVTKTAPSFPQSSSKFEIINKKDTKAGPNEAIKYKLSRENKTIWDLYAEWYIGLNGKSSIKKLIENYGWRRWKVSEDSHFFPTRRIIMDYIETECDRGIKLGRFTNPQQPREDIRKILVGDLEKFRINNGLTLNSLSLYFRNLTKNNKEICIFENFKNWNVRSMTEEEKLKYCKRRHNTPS
Outline: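 Using PURExpress in vitro transcription/translation, GST-tagged yeast transcription factors were made in full-length or DNA-binding-domain form. These were applied at about 100-200 nM to double-stranded universal all-10-mer Agilent arrays, and bound protein was detected with fluorescent anti-GST. Scans were normalised with masliner before the Universal PBM Analysis Suite assigned E-scores to ungapped eight-base words pooled with their reverse complements.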

Sequence	PBM E-score
AGATCTGC	-0.0651
AGACTGCT	-0.124
AGTAATCG	-0.127
GTTGGTCA	0.0415
AACTAGCA	-0.0545
ACATCCTG	0.276
AAACATCT	0.122
GGTATCCA	0.267
AATCTGTA	-0.03
ATCACATC	-0.0167
AGCATAAG	0.0544
ACTTGATC	0.0531
GGACGTTA	0.0629
GTCCTACA	0.095
ATTCACCG	0.123
GTATCGAC	-0.238
CATTTAAC	0.0721
CTCGCCAC	-0.176
CCCAAGGA	-0.0185
ATCACCAT	0.0303
AACAATAA	0.017
CCGTCAAG	-0.068
CAACGGGG	-0.0353
GAGAGGGC	-0.212
ACCTCTGA	0.0306

Sequence	PBM E-score
AGTCTAAC	-0.144
AAACGCCG	0.0308
GCAACACA	-0.0842
AACCATGT	-0.0416
ACCGAATG	-0.00693
ACTAATTC	0.0751
CAAGGTGC	-0.0358
GACTAATC	-0.128
GTCCCAAC	0.165
GTAGAGTA	-0.149
GGTCACAA	-0.0508
ATCTTGGG	0.109
CCCCTGGC	-0.0685
CGAGATGA	-0.0306
CAGTGAAG	0.0369
AACCTGGC	0.0571
ACATCAGA	0.0395
AGTGATTC	0.0351
ACGGTAAT	-0.228
ATCCATAA	0.113
GATGCATC	-0.0805
AAAGGCCC	-0.188
AGCATTCA	-0.179
AACTAATG	0.11
ATTCCTTA	0.043

Sequence	PBM E-score
ACCATTAA	0.0847
AACCCAGA	0.0947
TACGTCAA	0.111
CCTGAGCG	0.0569
CTGTGCAA	-0.111
CCGTGACC	-0.214
CACACATA	-0.0109
CAGTACTC	-0.184
GCAGTGAA	0.109
AACGGTGT	-0.343
CAGCACGG	0.166
ACGAGTAG	0.00592
AACTTATA	0.0912
ATCAGCGG	0.00888
TCTTCGAA	-0.106
CTAAGAAC	0.0873
CACATGAA	-0.0495
ATAAGAAC	0.269
GAAGGCTC	-0.117
CTGACGCA	-0.0763
CCACCGTA	0.147
AGGCTCTC	-0.0462
CCCTAGTC	-0.158
AAATACGG	0.149
TATTCTCA	-0.0338

Sequence	PBM E-score
GATTAGCC	-0.107
CAATGCCG	-0.29
ATACCAAT	-0.0179
AATTTGCC	-0.0288
CTTCGACC	-0.0571
TAGGGTCA	-0.126
ACATCGAC	-0.154
AATTTACT	0.155
CGGTGGGC	-0.106
CAACCTTG	-0.101
AGCAGTGC	-0.294
TTGCGCAA	-0.0464
TAGGCGGA	-0.147
AAGTATGT	-0.0902
CTTATTGC	0.0403
CAGGCGCA	-0.0694
AATAACAT	0.122
AGAACGTG	-0.192
CTCAGATA	0.137
AACTTCGA	0.117
ATATCCCG	-0.107
ATCCGAAG	0.104
AGGCGCAA	0.0238
TTCCGCAA	0.186
ATCCCACC	0.139

Sequence	PBM E-score
CGCATTTA	0.143
CCCAGAGG	0.0026
AGACCGCC	-0.139
ATCACCAA	0.0298
CCCGGACG	-0.0526
GTACCCAC	0.144
CGAACTAG	0.136
CAGTTTCA	0.0561
CGTCTATC	0.0717
CTTGTAGA	0.0507
GGTTCCGA	0.106
GAACCCTC	-0.138
CATAGTAC	-0.0462
GAACTTAA	0.0607
AGGCACGC	-0.177
TTAACGAA	0.0905
ATCATTGA	-0.0967
CTTCCGCC	0.022
ATGAGAGC	-0.173
GTATGACA	0.0344
GTAACATA	0.101
CCACTATC	0.368
GTTTGCTA	-0.0585
AAAGGGTC	-0.235
AGGGCACG	-0.128

Sequence	PBM E-score
GCTATCGA	-0.0891
GCGCGGCA	-0.0701
TACCGTAA	0.0593
CTCCTCAC	-0.0357
GTAGTCCA	-0.086
CTCAATAA	0.0502
TCAACACA	0.0452
AGTCCAAT	0.152
GCACTAGA	-0.158
ATACGTTA	-0.158
AACGATAG	-0.0512
ATCAGAGC	-0.0893
CTAGCCCC	-0.0102
CAAGCGAC	-0.0201
GCTTAGCA	-0.193
ACTCATAG	-0.0454
CCTCGGAA	0.0163
CCTCGTGC	-0.0611
ATCTTCAT	-0.0527
CTTGTTTC	0.0369
GATGAACA	-0.0607
ATCCGGAA	0.26
AACGACAC	-0.0852
ATAGTCCC	-0.253
AACTGCGT	0.172

Sequence	PBM E-score
ACATGGAT	-0.0474
CATCTTTA	0.114
AAAATTAT	0.0815
ACCCTCTA	0.0687
CGTTGTGA	-0.00763
AAGCCGGG	0.112
TCCCTACA	0.00308
AAAGGGGC	0.12
GAATACCA	0.143
GTAGGAAC	0.0386
TTAACCAA	-0.0373
GAAACGCA	-0.156
CTCAGGGC	-0.117
CTGCCTCC	-0.0884
CACAGAAA	-0.117
CCCAAGTC	-0.0913
CGGCATAA	-0.0776
GACTATGA	-0.12
CCTCTCAC	-0.23
AGCCAAAA	0.115
ACGTCGTC	0.0135
CACAATAC	0.085

— the supplement of paper PMC3334620
